Experimental data taken from PubChem BioAssay AID1345082 (National Center for Advancing Translational Sciences (NCATS), 2018).
Hit rate of the full screen: of about 94,000 compounds, about 4,000 (4.3%) were called active. Inconclusive results, whose numbers are uncertain, are shown with a selection of clear calls. Calls follow the shape of the dose curve; as a rule, active = well fitted inhibition curve with a large enough effect; inconclusive = small, poorly fitted or top-dose-only effect; inactive = no such curve, though single readings can be large or run the other way. A potency beside an inconclusive call is a rough fit, not a confirmed value.

Experiment: Cytotoxic Profiling in NIH 3T3 Cell Line of Diverse Libraries Using Quantitative High-Throughput Screening; also: nearly all actives have a fitted effect of over 55% in size
Conditions: NIH 3T3 viability, CellTiter-Glo ATP luminescence, 48-72 h; series mostly up to 96.7 µM
Outline: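 Luminescent ATP readout (CellTiter-Glo, 10 min RT) after 48 or 72 hr compound exposure of NIH 3T3 cells seeded at 400 cells/well in 1536-well format; quantitative HTS.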
Potency is read from the fitted curve at half-maximal effect; tags tell the direction and shape of the fitted curve.

| Structure (SMILES) | Potency |
| --- | --- |
| O=C(c1ccco1)N1CCCC(c2noc(COc3ccccc3)n2)C1 (stereo unspecified) | inconclusive: 50.1 µM [inhibitor, single point] |
| O=C(COc1ccccc1)N1CCNc2cnc(Nc3cccc(F)c3)nc2C1 | inconclusive: 50.1 µM [inhibitor, partial curve, poor fit] |
| COc1ccc(C(=O)N2CCC(N3C[C@H](O)C[C@H]3C(=O)NC3CCCCC3)CC2)cn1 | inactive |
| CCN1Cc2cc3c(cc2N(CC(O)COc2ccccc2)CCC1=O)OCO3 (stereo unspecified) | inconclusive: 44.7 µM [inhibitor, partial curve, poor fit] |
| C[C@@H](c1ccccc1)N1C(=O)[C@@H]2CN(C(=O)CC3(CC(=O)O)CCCC3)CCN2C1=O | inconclusive: 126 µM [inhibitor, single point] |
| COc1ccc(Cl)cc1C(=O)Nc1ccc2c(c1)CCC(=O)N2 | inactive |
| CCn1c2c(c(=O)n1Cc1ccccc1)CCN(C(=O)C(C)C)C2 | inconclusive: 112 µM [inhibitor, single point] |
| CC(C)NC(=O)c1cc(-c2ccc(S(C)(=O)=O)cc2)nc2c1cnn2C | inactive |
| O=C(NC1CC1)c1ccccc1OCC1CCCN(Cc2ccc(Br)o2)C1 (stereo unspecified) | inconclusive: 44.7 µM [inhibitor, partial curve, poor fit] |
| CN(Cc1cnccn1)Cc1ccccc1OCC(O)CN(C)C1CCCCC1 (stereo unspecified) | inactive |
| O=C(NCc1cccc(Cl)c1)C1CCN(C(=O)c2ccc(-c3cccs3)cc2)CC1 | inconclusive: 7.08 µM [inhibitor, full curve] |
| COc1ccc(NC(=O)N[C@H]2CO[C@H]3[C@@H]2OC[C@H]3OC(=O)Nc2ccc(Oc3ccccc3)cc2)cc1 | inconclusive: 31.6 µM [inhibitor, partial curve, poor fit] |
| O=C(c1cccc(Cl)c1)N1CCc2nc(C3CC3)nc(-c3ccc(O)cc3)c2C1 | inconclusive: 44.7 µM [inhibitor, partial curve, poor fit] |
| Cc1ccsc1C(=O)Nc1cccc(-c2nnc3n2CCCC3)c1 | inconclusive: 44.7 µM [inhibitor, partial curve, poor fit] |
| CCc1nc(C)c(CC(=O)NCc2cc(F)cc3c(C)c(CC)[nH]c23)c(=O)[nH]1 | inconclusive: 50.1 µM [inhibitor, partial curve, poor fit] |
| Cc1ncc2c(c1CNC(=O)c1ccc(OC(F)F)cc1)CCNC2 | inactive |
| COc1cccc(-c2ncc3c(n2)OCCN(c2ccccc2)C3=O)c1OC | active: 79.4 µM |
| O=C(c1nc2cccnc2n(CCc2ccccc2)c1=O)N1CCOCC1 | inactive |
| O=C(c1cc(F)ccc1Cl)N1CCCC1c1nncn1Cc1ccncc1 (stereo unspecified) | inactive |
| COC(=O)c1ccc2nc(C[C@@H]3C[C@@H](C(C)C)[C@H](CNC(=O)C(C)C)C=C3C)[nH]c2c1 | inconclusive: 89.1 µM [inhibitor, partial curve, poor fit] |
| O=C(NCc1ccc(N2CCOCC2)cc1)c1ccc(N2CC3CC(C2)[C@H]2CCCC(=O)N2C3)nc1 (stereo partly specified) | inactive |
| CCOc1ccc(C(=O)N2CCN(c3cc(-c4ccc(F)cc4)[nH]n3)CC2)cc1OCC | inconclusive: 39.8 µM [inhibitor, partial curve, poor fit] |

| Structure (SMILES) | Potency |
| --- | --- |
| O=C(NC1CCCc2c1[nH]c1ccc(F)cc21)c1ccncc1 (stereo unspecified) | inconclusive: 50.1 µM [inhibitor, partial curve, poor fit] |
| COC(=O)C1=C(C)NC(=O)NC1c1ccc(N(C)C)cc1 (stereo unspecified) | inconclusive: 70.8 µM [inhibitor, single point] |
| COc1ccccc1NC(=O)N1CC[C@H](c2nnc(-c3ccc(C)cc3)o2)C1 | inactive |
| Cc1ccc(CN(C)C(=O)c2ccccc2OC2CCN(Cc3ccccn3)CC2)o1 | inactive |
| CCn1cnnc1-c1nn(C)c2c1CN(C(=O)Cc1ccc(NC(C)=O)cc1)CC2 | inactive |
| CC(C)(C)C(=O)Nc1nc2c(s1)C[C@@H]1[C@](C)(CO)[C@H](O)CC[C@@]1(C)[C@@H]2CC(=O)Nc1cccc(O)c1 | inconclusive: 89.1 µM [inhibitor, single point] |
| O=C(NCCc1ccccc1)C1CCCN1C(=O)c1cccc(-c2cccnc2)c1 (stereo unspecified) | inconclusive: 50.1 µM [inhibitor, partial curve, poor fit] |
| O=C(NC1CCN(c2cc(-c3cccs3)[nH]n2)CC1)c1ccc(F)cc1F | inconclusive: 44.7 µM [inhibitor, partial curve, poor fit] |
| CCN1c2cc(C(=O)Nc3ccc4c(c3)OCCO4)ccc2C(=O)N2CCCC21 (stereo unspecified) | inconclusive: 28.2 µM [inhibitor, partial curve, poor fit] |
| Cc1cc(C)c(CNC(=O)c2cc(-c3ccccc3)cc3c2OCCN3C(C)C)c(=O)[nH]1 | active: 22.4 µM |
| NC(=O)c1cccc(-c2cc(-c3ccncc3)c3cncn3c2)c1 | active: 35.5 µM |
| COc1ccc(OC)c(CNC(=O)Cc2cccn2-c2ccc(C)cc2)c1 | inconclusive: 44.7 µM [inhibitor, partial curve, poor fit] |
| CCc1nc2c(c(-c3ccc(Cl)cc3)n1)CN(Cc1cccc3ccccc13)CC2 | active: 31.6 µM |
| CN1CCN(C(=O)c2cc(-c3ccc(Cl)cc3Cl)c3nncn3n2)CC1 | inconclusive: 100 µM [inhibitor, partial curve, poor fit] |
| Cc1oc(C(O)c2cccc(O)c2)nc1C(=O)Nc1ccc2[nH]c(=O)oc2c1 (stereo unspecified) | inconclusive: 89.1 µM [inhibitor, partial curve, poor fit] |
| CCOC(=O)CN1C(=O)CN(C(=O)COC(C)=O)CCC(OC)c2ccccc21 (stereo unspecified) | inconclusive: 63.1 µM [inhibitor, partial curve, poor fit] |
| COc1ccc(OCc2nc(C)c(CCO)c(=O)n2CC(=O)Nc2ccc(C)cc2C)cc1 | inconclusive: 70.8 µM [inhibitor, single point] |
| Cc1cc(OC2CN(C(=O)c3ccccn3)C2)ccc1F | inconclusive: 56.2 µM [inhibitor, partial curve, poor fit] |
| COc1ccccc1-c1cccc(C(=O)N2CCC[C@H]2C(=O)N2CCOCC2)c1 | inactive |
| O=C(NCc1ccc(F)cc1)c1ccc2nnc(C3CC3)n2c1 | inconclusive: 79.4 µM [inhibitor, partial curve, poor fit] |
| O=C(CC1CCCCC1)N1CC(CO)C2(CCNCC2)C1 (stereo unspecified) | inactive |
| CC(C)c1ccc(C(=O)N2CCC3(CC2)OC(=O)N(Cc2ccc(O)cc2)C3(C)c2ccccc2)cc1 (stereo unspecified) | inconclusive: 31.6 µM [inhibitor, full curve] |

| Structure (SMILES) | Potency |
| --- | --- |
| CCCCC1CN(c2cccc(-c3ccccc3)c2)C(=O)CN1C(C)=O (stereo unspecified) | inconclusive: 89.1 µM [inhibitor, single point] |
| C=CCNC(=O)N1CCC(O)(c2csc(CN3CCc4ccccc4C3)n2)CC1 | inactive |
| Cc1ccc(C(=O)NC2CCN(c3cnn(Cc4ccccc4)c(=O)c3)CC2)s1 | inconclusive: 50.1 µM [inhibitor, single point] |
| CCOC(=O)[C@@H]1CN(C(=O)CCc2ccccc2)[C@H]2c3ccc(OC)cc3O[C@@H]12 | inconclusive: 50.1 µM [inhibitor, partial curve, poor fit] |
| OC1(c2ccc(F)cc2)CCN(c2nccc(-c3ccccn3)n2)CC1 | inactive |
| CC(C)Cc1ccc(S(=O)(=O)N(C)CC2CCOC2)cc1 (stereo unspecified) | inactive |
| c1ccc(Nc2cc3c(cn2)CN(Cc2cccs2)CCN3)cc1 | active: 50.1 µM |
| CCc1nnc([C@@H]2CC(F)(F)CN2C(=O)c2occc2C)o1 | inactive |
| CS(=O)(=O)c1ccc(CN2C[C@@H]3C[C@H]2C(=O)N(Cc2ccc(OC(F)(F)F)cc2)c2ccccc2O3)cc1 | active: 31.6 µM |
| CCc1nc2c(c(-c3ccc(Cl)cc3)n1)CCN(Cc1ccc(F)cc1)CC2 | inconclusive: 63.1 µM [inhibitor, partial curve, poor fit] |
| CC(C)N1C[C@H](Oc2ccccc2)[C@@H]1C1CCN(C(=O)c2cccc(C#N)c2)CC1 | inactive |
| CC(=O)N1CCC[C@@H]1C(=O)N1CCC(N2CCOC2=O)CC1 | inactive |
| O=C1[C@H]2CN(Cc3cccc(Cl)c3)C[C@H]2C(=O)N1CCN1CCc2ccccc2C1 | inconclusive: 50.1 µM [inhibitor, partial curve, poor fit] |
| CN(Cc1nc(-c2ccccc2)no1)C(=O)c1cccc(C2CCNC2)c1 (stereo unspecified) | inconclusive: 89.1 µM [inhibitor, partial curve, poor fit] |
| COc1cccc(CN2C[C@@H](CO)[C@H](NC(=O)C3CCC3)C2)c1 | inactive |
| CN1C(=O)C2(CCN(C(=O)c3ccc(C(F)(F)F)cc3)C2)c2ccccc21 (stereo unspecified) | inactive |
| Cc1cc(C)n(CC(=O)N2CCC(c3nc(-c4ccccc4)no3)C2)n1 (stereo unspecified) | inactive |
| O=C(NCc1nnc2ccc(-c3ccc(Cl)cc3)nn12)c1cccc2[nH]ccc12 | inconclusive: 50.1 µM [inhibitor, partial curve, poor fit] |
| O=C(CC[C@@H]1CNC(=O)[C@@H]2C[C@H](NC(=O)Nc3ccccc3)CN12)NCc1ccccc1 | inactive |
| CN1CC(=O)N(C2CCNCC2)Cc2c(NC3CCCCC3)ncnc21 | inactive |
| CC1=C[C@@H](CN(C)CCC#N)[C@H](C(C)C)C[C@H]1Cc1nnc(-c2ccc(C)cc2)o1 | inconclusive: 44.7 µM [inhibitor, partial curve, poor fit] |
| COc1ccc(-n2nc(C3CCN(C(=O)c4ccc(Cl)nc4)CC3)[nH]c2=O)cc1 | inconclusive: 70.8 µM [inhibitor, single point] |
